{"source": "paper doi:10.1101/2023.03.27.534416", "about": "(bioRxiv, 2023)", "proteins": {"B1": {"name": "DYNLL[…]A (natural protein)", "chain": "not shown"}}, "biological_target": "the molecule itself", "assay": "SEC", "data": [{"protein": "B1", "values": [{"measurement": "stoichiometry N", "result": 2}]}]}
